Results reported in PubChem BioAssay (NCATS).
“And” between values parts separate entries of the source, which are not always exact repeats. Identical values can stand only once. The inconclusive results got no clear call from the source; some entries with a clear call stand among them for comparison. For some assays here: Where the call is inconclusive, the potency comes from a doubtful curve fit. The source made the active and inactive calls. Unless noted, calls follow the shape of the dose curve; as a rule, active = well fitted curve in the direction sought with a large enough effect; inconclusive = small, poorly fitted or top-dose-only effect, or another doubt; inactive = no such curve, though single readings can be large; an effect the other way counts as inactive or inconclusive.

Legend:
[1] = AP1 Signaling Pathway (AID 357; active = well fitted curve in either direction with a large enough effect, not every such curve was filed as active; inconclusive = small, poorly fitted or top-dose-only effect, or another doubt; also: top concentration of the series differs between compounds; % is scaled to controls: 0 for no effect and ±100 for the full control effect); details: ME-180 AP-1-bla reporter, EGF-induced, beta-lactamase ratio, 5 h; at 7.69 µM (top of the series) unless noted
How it was run: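 ME-180 cells with beta-lactamase reporter under AP-1 response element, stimulated with EC50 EGF; compounds tested in titration series, 5 h at 37 °C. CCF4 substrate added 2.5 h at room temperature; 460/530 nm emission ratio gave %activity and AC50.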

[2] = NFAT Signaling Pathway (AID 444; active = well fitted curve in either direction with a large enough effect, not every such curve was filed as active; inconclusive = small, poorly fitted or top-dose-only effect, or another doubt;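 also: carbachol stimulus at about its EC50 of 1 µM final; % is scaled to controls: 0 for no effect and ±100 for the full control effect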); details: Jurkat NFAT-bla M1, carbachol, beta-lactamase ratio, 5 h
How it was run: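 Jurkat cells carrying an NFAT-driven β-lactamase reporter and co-transfected muscarinic M1 receptor were treated with compound plus carbachol (1 uM final, an EC50 level) for 5 h at 37 °C. CCF4 loading followed for 1 h at RT; 460/530 nm ratio gave %activity.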

[3] = target: 3',5'-cyclic-AMP phosphodiesterase 4B (Homo sapiens) (UniProt Q07343); experiment: qHTS Assay for Inhibitors of PDE-IV (AID 607; active = well fitted activation curve with a large enough effect in the main read-out, with a control signal flat, not every such curve was filed as active; inconclusive = small, poorly fitted or top-dose-only effect, or effect the other way, or a change in a side signal; also: potency is read from the fitted curve at half-maximal effect); details: HEK293 ACTOne CNG channel cells, membrane potential fluorescence; activation (PDE inhibition): at 22.9 µM (top of the series)
How it was run: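 The readout is membrane depolarisation from a cAMP-sensing CNG channel, detected with a potential dye at ex 535/em 590. Cells were HEK293-derived (endogenous PDE-IV) at 1000 cells/well, titrated up to 22.9 uM final.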

[4] = qHTS Assay for Lipid Storage Modulators (AID 1519; calls by dose curve; also: potency is read from the fitted curve at half-maximal effect; as to activity change, negative = inhibition: % is scaled to controls: 0 for no effect and ±100 for the full control effect); details: Drosophila S3 cells, BODIPY lipid droplet/cell ratio, laser cytometry, cells loaded with oleic acid; activity change, negative = inhibition: at 57.5 µM (top of the series) unless noted
How it was run: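 Cells seeded at 5,000 per well were treated with compounds over a concentration series and loaded with oleic acid (400 uM, as added). Lipid droplet fluorescence (488 nm excitation, 500-530 nm channel) was read by laser-scanning cytometry and normalized to 20 uM Triacsin C.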

[5] = Primary qHTS for small molecule stabilizers of the endoplasmic reticulum resident proteome: Secreted ER Calcium Modulated Protein (SERCaMP) assay (AID 1508630); details: SH-SY5Y GLuc-SERCaMP (Gaussia luciferase released on ER calcium loss) secretion, thapsigargin, luminescence; activity change, negative = inhibition: at 38.4 µM (top of the series) unless noted; also: potency is read from the fitted curve at half-maximal effect
How it was run: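 GLuc-SERCaMP-expressing SH-SY5Y cells, pretreated 16 h with compound, are challenged with thapsigargin to empty ER calcium stores; after 4 h, coelenterazine is added directly to the medium and luminescence is imaged.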

[6] = qHTS Assay for Identification of Small Molecule Agonists for Hypoxia Response Element Signaling Pathway (AID 914; active = well fitted activation curve with a large enough effect in the signal ratio, with a control signal flat, not every such curve was filed as active; inconclusive = small, poorly fitted or top-dose-only effect, or effect the other way, or a change in a side signal; the % refers to the signal ratio; also: potency is read from the fitted curve at half-maximal effect; as to activation: top concentration of the series differs between compounds; % of control where 0% means no effect); details: ME-180 HRE-bla reporter, beta-lactamase ratio, CoCl2, 17 h; activation: stronger effect = higher value
How it was run: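 HRE-bla ME-180 assay for agonist-like enhancement of an EC50 CoCl2 stimulus: 17 h at 37 degrees Celsius, CCF4 for 2.5 h, ratiometric 460/530 nm signal converted to %Activity and fitted to AC50.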

[7] = target: Ubiquitin carboxyl-terminal hydrolase 1 (Homo sapiens) (UniProt O94782); experiment: Inhibitors of USP1/UAF1: Pilot qHTS (AID 504865); also: potency is read from the fitted curve at half-maximal effect;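 also: rhodamine fluorescence freed from ubiquitin-rhodamine substrate followed over time; nearly all actives have a fitted effect of over 35% in size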
How it was run: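 USP1/UAF1 complex (1nM) preincubated with compound 15 min at room temperature, then Ub-Rho substrate (150nM final) added. Fluorescence read kinetically at 480/540 nm, 6 reads every 60 seconds. Buffer: 50mM HEPES pH 7.8, 0.5mM EDTA, 0.1 mg/ml BSA, 1mM TCEP, 0.01% Tween-20.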

[8] = target: Cytochrome P450 1A2 (Homo sapiens) (UniProt P05177); experiment: p450-cyp1a2 (AID 410; calls by dose curve; also: potency is read from the fitted curve at half-maximal effect;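 as to activity change, negative = inhibition: top concentration of the series differs between compounds; -100% = full effect of reference inhibitor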)
How it was run: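 20nM CYP1A2 with 100uM Luciferin-ME (at Km) in 100mM KPO4; compound preincubated 10 min, NADPH regeneration added, 60 min at room temperature. Luciferin quantified by luminescence after detection reagent; normalized to 57 uM furafylline.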

[9] = target: Glucocorticoid receptor (Homo sapiens) (UniProt P04150); experiment: GR-GFP Redistribution (AID 450;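 active = compounds whose dose series gives a full or clear partial fitted curve of increased nuclear translocation; inconclusive = weak partial curve or effect only at the top dose; inactive = no dose-dependent translocation response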; also: potency is read from the fitted curve at half-maximal effect); details: U2OS GR-GFP nuclear translocation, laser cytometry, 2 h
[10] = Stat Signaling Pathway (AID 446; active = well fitted curve in either direction with a large enough effect, not every such curve was filed as active; inconclusive = small, poorly fitted or top-dose-only effect, or another doubt;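 also: ME-180 cervical cancer cells given 40 pM IL-6 alongside compound; SIE-controlled beta-lactamase reporter measured as 460/530 nm FRET emission ratio; top concentration of the series differs between compounds; % is scaled to controls: 0 for no effect and ±100 for the full control effect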); details: ME-180 SIE beta-lactamase reporter, IL-6 stimulated, 5 h; at 7.69 µM (top of the series) unless noted
How it was run: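 Screening format detects activators and inhibitors alike: ME-180 SIE-bla cells stimulated at 40 pM IL-6 for 5 hrs with compound, then dual-emission beta-lactamase read at 405 nm excitation.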

[11] = target: Cytochrome P450 3A4 (Homo sapiens) (UniProt P08684); experiment: qHTS Assay for Inhibitors and Substrates of Cytochrome P450 3A4 (AID 884); details: recombinant CYP3A4, Luciferin-PPXE luminescence; activity change, negative = inhibition: at 57.1 µM (top of the series); also: potency is read from the fitted curve at half-maximal effect; nearly all actives have a fitted effect of over 50% in size
How it was run: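 20 nM human CYP3A4 with 25 uM Luciferin-PPXE (at KM) in 200 mM KPO4, preincubated 10 min with compound; NADPH regeneration started a 60 min RT reaction. Luciferin detected by luminescence, normalized to 57 uM ketoconazole as full inhibition.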

[12] = target: Cytochrome P450 2C19 (Homo sapiens) (UniProt P33261); experiment: qHTS Assay for Inhibitors and Substrates of Cytochrome P450 2C19 (AID 899); also: top concentration of the series differs between compounds; % is scaled to controls: 0 for no effect and ±100 for the full control effect; nearly all actives have a fitted effect of over 60% in size
How it was run: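 Human CYP2C19 (5nM) with Luciferin-H EGE at 10uM (its KM) in 50mM KPO4 was preincubated with compound for 10 min at 37C. NADPH regeneration started a 60 min 37C reaction. Luciferin was read by luminescence, normalized to 57uM ketoconazole.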

[13] = qHTS Assay for Identification of Small Molecule Agonists for Thrombopoietin (TPO) Signaling Pathway (AID 917); also: potency is read from the fitted curve at half-maximal effect
How it was run: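 Murine Ba/F3 cells stably expressing human TPO receptor and a Glycoprotein IIb promoter–luciferase reporter were IL-3-starved overnight, then treated with compounds plus TPO (26 pM final, its EC50) for 24 hrs at 37 C; luminescence was read.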

[14] = target: DNA dC->dU-editing enzyme APOBEC-3G (Homo sapiens) (UniProt Q9HC16); experiment: qHTS for inhibitors of Vif-A3G interactions: Validation (AID 588379); also: potency is read from the fitted curve at half-maximal effect
How it was run: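 HeLa cells stably expressing Vif and A3G-eYFP, 700 cells/well, incubated overnight at 37 deg C, then exposed to compound overnight at 37 deg C. Inhibition of Vif-mediated degradation read as increased yellow fluorescence (Ex 488/Em 500-530) by laser-scanning cytometry.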

[15] = target: Mitogen-activated protein kinase 10 (Mus musculus) (UniProt Q61831); experiment: JNK3 AlphaScreen Assay (AID 530; active = well fitted curve in either direction with a large enough effect, not every such curve was filed as active; inconclusive = small, poorly fitted or top-dose-only effect, or another doubt;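 also: kinase came from lysate of stimulated human HepG2 cells; signal reports phosphorylation of biotinylated GST-cJun 1-79 at Ser73 with 10 µM ATP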; also: potency is read from the fitted curve at half-maximal effect); details: JNK3 lysate, c-Jun phosphorylation; activity change, negative = inhibition: at 57.1 µM (top of the series)
How it was run: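 Inhibitors reduce antibody binding to phosphorylated biotin-cJun, lowering AlphaScreen luminescence. Lysates from HepG2 cells pre-activated by IL-1beta plus TNF-alpha supplied JNK3; compounds were titrated.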

[16] = target: Cytochrome P450 2D6 (Homo sapiens) (UniProt P10635); experiment: qHTS Assay for Inhibitors and Substrates of Cytochrome P450 2D6 (AID 891);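 also: luciferin methyl ether substrate demethylated by CYP2D6 with NADPH regeneration; potency is read from the fitted curve at half-maximal effect; nearly all actives have a fitted effect of over 60% in size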
How it was run: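 Human CYP2D6 (5 nM) with 30 uM Luciferin-ME EGE (at Km) in 100 mM KPO4, compound preincubated 10 min, then NADPH regeneration system for 60 min at room temperature. Luciferin read by luminescence; normalized to 1.43 uM quinidine.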

[17] = at 7.69 µM (top of the series) unless noted
Tags tell the direction and shape of the fitted curve or compound fluorescence and quenching.

UniProt P33261, sequence (P33261 whole entry, looked up): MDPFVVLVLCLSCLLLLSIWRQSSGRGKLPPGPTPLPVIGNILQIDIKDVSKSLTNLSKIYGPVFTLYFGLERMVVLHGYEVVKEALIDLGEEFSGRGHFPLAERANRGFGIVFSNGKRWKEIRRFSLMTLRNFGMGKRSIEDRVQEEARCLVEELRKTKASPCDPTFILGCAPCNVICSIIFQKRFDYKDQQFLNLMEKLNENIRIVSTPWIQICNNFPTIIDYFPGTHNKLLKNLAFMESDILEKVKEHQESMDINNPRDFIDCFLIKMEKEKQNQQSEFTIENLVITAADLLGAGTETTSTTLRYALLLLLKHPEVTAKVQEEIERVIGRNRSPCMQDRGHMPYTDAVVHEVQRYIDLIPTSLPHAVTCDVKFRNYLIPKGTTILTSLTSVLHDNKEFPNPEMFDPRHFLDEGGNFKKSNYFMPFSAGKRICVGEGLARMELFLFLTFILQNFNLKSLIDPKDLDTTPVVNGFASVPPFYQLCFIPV
UniProt Q07343, sequence (Q07343 whole entry, looked up): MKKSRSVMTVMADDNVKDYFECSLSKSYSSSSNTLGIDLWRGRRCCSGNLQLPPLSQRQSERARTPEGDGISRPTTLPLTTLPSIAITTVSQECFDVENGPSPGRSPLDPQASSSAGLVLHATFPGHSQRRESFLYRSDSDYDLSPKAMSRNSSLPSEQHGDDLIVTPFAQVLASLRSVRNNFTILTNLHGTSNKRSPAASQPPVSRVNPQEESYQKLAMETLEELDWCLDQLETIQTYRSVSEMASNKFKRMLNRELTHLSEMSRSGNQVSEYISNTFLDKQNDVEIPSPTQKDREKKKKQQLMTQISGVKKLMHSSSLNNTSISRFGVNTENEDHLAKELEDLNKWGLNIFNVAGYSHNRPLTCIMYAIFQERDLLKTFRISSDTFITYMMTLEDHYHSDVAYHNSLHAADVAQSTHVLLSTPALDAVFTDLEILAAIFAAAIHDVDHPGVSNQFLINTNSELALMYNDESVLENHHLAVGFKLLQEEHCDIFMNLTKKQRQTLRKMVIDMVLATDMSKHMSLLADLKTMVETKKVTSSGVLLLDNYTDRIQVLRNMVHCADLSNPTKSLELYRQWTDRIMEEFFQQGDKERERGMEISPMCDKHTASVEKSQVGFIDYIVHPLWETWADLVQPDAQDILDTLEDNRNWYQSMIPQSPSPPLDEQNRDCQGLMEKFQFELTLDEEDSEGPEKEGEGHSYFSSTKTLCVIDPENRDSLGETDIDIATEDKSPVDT
UniProt P05177, sequence (P05177 whole entry, looked up): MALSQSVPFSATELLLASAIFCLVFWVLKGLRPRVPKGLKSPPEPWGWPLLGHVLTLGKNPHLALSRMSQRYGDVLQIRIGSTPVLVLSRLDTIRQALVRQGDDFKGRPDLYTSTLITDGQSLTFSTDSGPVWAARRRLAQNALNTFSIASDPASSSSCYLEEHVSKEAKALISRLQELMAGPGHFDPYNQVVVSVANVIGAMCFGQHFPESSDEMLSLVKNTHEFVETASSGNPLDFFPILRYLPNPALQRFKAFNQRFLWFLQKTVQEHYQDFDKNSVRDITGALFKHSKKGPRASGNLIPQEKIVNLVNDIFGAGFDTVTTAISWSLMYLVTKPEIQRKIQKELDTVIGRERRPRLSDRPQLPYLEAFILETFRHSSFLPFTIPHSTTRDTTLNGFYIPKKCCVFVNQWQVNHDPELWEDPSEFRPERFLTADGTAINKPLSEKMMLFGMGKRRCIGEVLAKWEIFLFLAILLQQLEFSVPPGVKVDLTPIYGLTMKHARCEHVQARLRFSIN
UniProt O94782, sequence (O94782 whole entry, looked up): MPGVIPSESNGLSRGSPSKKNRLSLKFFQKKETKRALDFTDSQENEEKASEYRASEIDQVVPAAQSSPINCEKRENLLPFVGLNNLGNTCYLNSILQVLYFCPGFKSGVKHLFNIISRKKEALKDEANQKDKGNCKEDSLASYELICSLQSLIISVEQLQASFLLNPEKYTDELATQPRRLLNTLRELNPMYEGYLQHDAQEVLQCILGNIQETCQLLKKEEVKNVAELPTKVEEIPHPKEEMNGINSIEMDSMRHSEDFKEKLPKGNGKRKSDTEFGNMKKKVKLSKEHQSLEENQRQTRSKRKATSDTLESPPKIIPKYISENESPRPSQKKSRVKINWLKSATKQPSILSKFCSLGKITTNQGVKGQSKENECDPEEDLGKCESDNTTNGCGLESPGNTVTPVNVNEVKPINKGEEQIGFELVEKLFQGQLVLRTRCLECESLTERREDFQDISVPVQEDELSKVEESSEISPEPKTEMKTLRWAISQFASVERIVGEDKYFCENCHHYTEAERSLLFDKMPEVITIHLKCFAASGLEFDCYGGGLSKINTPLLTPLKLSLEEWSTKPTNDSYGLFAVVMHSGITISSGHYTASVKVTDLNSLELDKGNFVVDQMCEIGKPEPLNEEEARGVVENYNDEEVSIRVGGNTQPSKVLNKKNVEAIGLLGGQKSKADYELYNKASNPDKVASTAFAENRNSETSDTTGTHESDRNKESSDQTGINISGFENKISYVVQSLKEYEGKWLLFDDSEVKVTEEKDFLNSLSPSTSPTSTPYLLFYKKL
UniProt P04150, sequence (P04150 whole entry, looked up): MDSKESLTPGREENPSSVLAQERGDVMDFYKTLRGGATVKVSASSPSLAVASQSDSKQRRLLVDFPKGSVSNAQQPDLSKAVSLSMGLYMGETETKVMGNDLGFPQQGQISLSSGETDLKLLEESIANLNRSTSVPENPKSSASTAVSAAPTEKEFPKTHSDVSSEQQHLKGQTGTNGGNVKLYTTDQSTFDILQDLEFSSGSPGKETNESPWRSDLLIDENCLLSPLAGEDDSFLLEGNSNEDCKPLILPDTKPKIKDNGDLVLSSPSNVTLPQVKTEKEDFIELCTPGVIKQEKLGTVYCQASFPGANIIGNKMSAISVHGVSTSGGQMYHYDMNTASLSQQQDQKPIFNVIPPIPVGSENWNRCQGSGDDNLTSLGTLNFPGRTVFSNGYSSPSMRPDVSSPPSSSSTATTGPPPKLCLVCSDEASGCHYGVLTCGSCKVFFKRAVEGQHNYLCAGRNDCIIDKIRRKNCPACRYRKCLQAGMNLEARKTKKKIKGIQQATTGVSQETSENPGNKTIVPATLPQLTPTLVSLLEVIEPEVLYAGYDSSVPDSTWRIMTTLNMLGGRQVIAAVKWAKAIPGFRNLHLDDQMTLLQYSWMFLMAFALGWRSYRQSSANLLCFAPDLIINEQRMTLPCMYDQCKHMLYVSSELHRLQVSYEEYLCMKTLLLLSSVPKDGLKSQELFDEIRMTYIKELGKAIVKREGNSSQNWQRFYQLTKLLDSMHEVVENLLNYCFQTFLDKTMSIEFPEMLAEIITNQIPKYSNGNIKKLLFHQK
UniProt Q9HC16, sequence (Q9HC16 whole entry, looked up): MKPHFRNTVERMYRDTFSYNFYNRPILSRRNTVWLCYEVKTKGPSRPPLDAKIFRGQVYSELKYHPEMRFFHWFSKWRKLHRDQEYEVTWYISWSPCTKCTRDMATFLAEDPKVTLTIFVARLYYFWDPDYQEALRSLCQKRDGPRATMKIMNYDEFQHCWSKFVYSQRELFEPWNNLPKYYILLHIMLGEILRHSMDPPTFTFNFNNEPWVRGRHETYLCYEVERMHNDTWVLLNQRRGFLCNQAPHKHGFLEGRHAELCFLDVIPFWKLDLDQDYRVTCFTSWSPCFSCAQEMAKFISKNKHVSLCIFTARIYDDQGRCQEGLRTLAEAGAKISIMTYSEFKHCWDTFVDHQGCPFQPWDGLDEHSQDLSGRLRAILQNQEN
UniProt P08684, sequence (P08684 whole entry, looked up): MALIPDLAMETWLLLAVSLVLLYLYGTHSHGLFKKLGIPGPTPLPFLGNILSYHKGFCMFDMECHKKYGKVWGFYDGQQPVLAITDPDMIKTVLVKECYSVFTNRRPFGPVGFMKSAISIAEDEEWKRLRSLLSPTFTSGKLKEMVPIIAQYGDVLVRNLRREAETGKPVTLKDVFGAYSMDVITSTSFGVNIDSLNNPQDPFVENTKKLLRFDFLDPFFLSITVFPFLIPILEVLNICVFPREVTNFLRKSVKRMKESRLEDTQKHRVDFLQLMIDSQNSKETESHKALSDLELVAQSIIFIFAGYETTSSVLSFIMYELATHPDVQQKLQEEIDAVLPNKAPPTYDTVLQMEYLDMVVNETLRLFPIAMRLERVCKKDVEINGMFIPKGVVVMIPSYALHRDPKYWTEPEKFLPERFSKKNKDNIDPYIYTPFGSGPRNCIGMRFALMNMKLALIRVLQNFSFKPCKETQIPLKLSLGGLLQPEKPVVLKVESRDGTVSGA
UniProt P10635, sequence (P10635 whole entry, looked up): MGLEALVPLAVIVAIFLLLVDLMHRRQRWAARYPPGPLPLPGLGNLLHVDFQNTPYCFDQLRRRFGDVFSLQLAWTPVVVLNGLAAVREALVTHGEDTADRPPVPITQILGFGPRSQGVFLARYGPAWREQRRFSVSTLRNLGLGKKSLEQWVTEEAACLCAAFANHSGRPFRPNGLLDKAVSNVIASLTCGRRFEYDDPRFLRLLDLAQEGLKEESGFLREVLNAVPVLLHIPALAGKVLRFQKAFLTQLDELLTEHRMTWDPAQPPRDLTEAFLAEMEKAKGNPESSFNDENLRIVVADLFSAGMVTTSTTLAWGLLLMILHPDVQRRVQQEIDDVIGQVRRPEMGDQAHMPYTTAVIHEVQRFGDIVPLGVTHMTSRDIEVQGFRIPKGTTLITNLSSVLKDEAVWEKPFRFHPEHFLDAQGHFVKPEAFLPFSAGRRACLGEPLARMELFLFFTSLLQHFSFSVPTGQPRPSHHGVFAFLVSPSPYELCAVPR

COc1cccc(Nc2ncc3nc(CCc4ccccc4)c(=O)n(C[C@H]4CCCO4)c3n2)c1
activity change, negative = inhibition [1]: inconclusive: -42.8% [inhibitor] | activity change, negative = inhibition [2, 17]: inactive: -6.15% | Potency [3]: inconclusive: 3.16 µM [activator, partial curve] | activity change, negative = inhibition [4]: inconclusive: -5.75% | Potency [5]: inconclusive: 8.91 µM [inhibitor, single point]

COc1cccc(-c2ccc3ncnc(NCc4ccc(OC)cc4OC)c3c2)c1
activity change, negative = inhibition [1]: inconclusive: -31.6% [inhibitor] | activity change, negative = inhibition [2, 17]: inactive: -18.9% | Potency [3]: inconclusive: 10 µM [rising, partial curve] | activity change, negative = inhibition [4]: inconclusive: -1.05% | Potency [5]: inconclusive: 25.1 µM [inhibitor, single point]

CN(C)c1ccc(-c2cncnc2NCCN2CCOCC2)cc1
activity change, negative = inhibition [1]: inconclusive: 62.1% [activator] | activity change, negative = inhibition [2, 17]: inconclusive: -119% [inhibitor] | Potency [6]: active: 1.26 µM | activity change, negative = inhibition [4]: inconclusive: 4.09% | Potency [7]: inactive | Potency [5]: inconclusive: 28.2 µM [inhibitor, single point]

CN1CCN(c2ncncc2-c2ccccc2Cl)CC1
Potency [8]: active: 2.51 µM | activity change, negative = inhibition [2, 17]: inconclusive: -55.4% [inhibitor] | activation [6]: inactive: 4.87% | Potency [4]: inactive | Potency [7]: inactive | Potency [5]: inconclusive: 11.2 µM [inhibitor, partial curve, poor fit]

CN(C)C(=O)c1ccc(-c2nc(Nc3ccncc3)c3ccccc3n2)cc1
Potency [8]: active: 7.94 µM | activity change, negative = inhibition [4]: inconclusive: -10.9% | Potency [7]: inconclusive: 56.2 µM [inhibitor, partial curve] | Potency [5]: inconclusive: 12.6 µM [inhibitor, single point]

CCOC(=O)[C@H](N)/C=C(\C)CP(=O)(O)O
Potency [8]: inactive | Potency [9]: inconclusive: 48.4 µM [single point] | Potency [4]: inactive | activity change, negative = inhibition [5]: inconclusive: -32.1% [inhibitor]

COc1cccc(-c2ccc3ncnc(NC4CC4)c3c2)c1
activity change, negative = inhibition [1]: inconclusive: -35.8% [inhibitor] | activity, negative = inhibition [10]: inconclusive: -43.9% [inhibitor] | Potency [3]: inconclusive: 12.6 µM [activator, single point] | Potency [11]: active: 2 µM | activation [6]: inconclusive: 36.2% | activity change, negative = inhibition [4]: inconclusive: -16.5% | Potency [5]: inactive

COc1cccc(Nc2ncc3nc(-c4ccccc4)c(=O)n(C4CC4)c3n2)c1
activity change, negative = inhibition [1]: inconclusive: -30.7% [inhibitor] | Potency [6]: active: 3.16 µM | Potency [4]: inconclusive: 22.4 µM [inhibitor, single point] | Potency [5]: inconclusive: 7.08 µM [inhibitor, partial curve, poor fit]

Fc1ccc(C(c2ccc(F)cc2)N2CCN(C/C=C\c3ccccc3)CC2)cc1
Potency [8]: inconclusive: 15.8 µM [decreasing] and inconclusive: 25.1 µM [decreasing] | activity change, negative = inhibition ([2]; at 17.2 µM (top of the series)): inconclusive: -70.3% [inhibitor] | activity change, negative = inhibition ([2]; at 38 µM (top of the series)): inconclusive: -76.9% [inhibitor] | Potency [12]: inactive | Potency [13]: inconclusive: 7.94 µM [inhibitor, partial curve] | activity change, negative = inhibition [4]: inconclusive: 2.7% | Potency [7]: inconclusive: 31.6 µM [inhibitor, partial curve] | Potency [14]: inconclusive: 26.6 µM [inhibitor, single point] | Potency [5]: inconclusive: 15.8 µM [inhibitor, single point]

O=C(c1ccncc1)N1CCC2(CCCN(c3cccc(-c4ccccc4)c3)C2)CC1
activity change, negative = inhibition [1]: inconclusive: -27.5% [inhibitor] | Potency [15]: inactive | Potency [3]: inconclusive: 10 µM [activator, partial curve] | Potency [6]: inconclusive: 5.01 µM [inhibitor, single point] | activity change, negative = inhibition [4]: inconclusive: -4.9% | Potency [5]: inconclusive: 28.2 µM [inhibitor, single point]

N#CCCn1c(=O)c(-c2ccc(F)cc2)nc2cnc(Oc3ccccc3)nc21
activity change, negative = inhibition [1]: inconclusive: -36.6% [inhibitor] | activity, negative = inhibition [10]: inactive: -5.37% | activity change, negative = inhibition [4]: inconclusive: 2.8% | Potency [5]: inconclusive: 28.2 µM [inhibitor, single point]

COc1cccc(-c2ccc3ncnc(NCc4cnc(C)cn4)c3c2)c1
activity change, negative = inhibition [1]: inconclusive: -33.4% [inhibitor] | Potency [15]: inconclusive: 20 µM [inhibitor, partial curve] | activation [6]: inactive: -8.99% | activity change, negative = inhibition [4]: inconclusive: 0.237% | Potency [5]: inconclusive: 22.4 µM [inhibitor, single point]

CCNc1ncc2nc(-c3cccc(C#N)c3)c(=O)n(C)c2n1
activity change, negative = inhibition [1]: inactive: 15.2% | activity change, negative = inhibition [2, 17]: inconclusive: 33.1% [activator] | Potency [16]: inconclusive: 2 µM [inhibitor, full curve] | Potency [6]: inconclusive: 3.16 µM [activator, single point] | activity change, negative = inhibition [4]: inconclusive: -23.2% | Potency [5]: inactive
